# Test results taken from PubChem BioAssay AID1508642 (National Center for Advancing Translational Sciences (NCATS), 2021).
# Out of some 43,000 compounds screened, about 200 (0.47%) were called active. About 12% were inconclusive and are not listed. The call rests on the fitted dose curve; in most records, active means well fitted cell-killing curve with a large enough effect; inconclusive means small, poorly fitted or top-dose-only effect, or effect the other way; inactive means flat fitted curve, though single readings scatter. The list shows a part of the results.
# Experiment: Cell viability qHTS assay in S16 Pmp22-F2sN cells; further: nearly all actives have a fitted effect of over 65% in size
# Settings: S16 Pmp22-F2sN Schwann cells (luciferase reporters placed in the Pmp22 gene) viability, CellTiter-Glo, 24 h; series mostly up to 57.5 µM; activity change, negative = cytotoxicity: at the top concentration
# In short: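 Luminescence from CellTiter-Glo, read by CCD camera after a 15 min room-temperature incubation, served as the viability signal. Reporter Schwann cells (S16 Pmp22-F2sN) had been treated with pin-transferred compounds for 24 h at 37C.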
# On the % scale 0 is the no-effect control and ±100 the full control effect.
row,SMILES,"activity change, negative = cytotoxicity"
1,N#Cc1ccc(CN2C(=O)c3ccccc3Sc3ccc(C(=O)OCc4ccco4)cc32)cc1,inactive: 7.68%
2,CCOc1ccc2nc(NC(=O)CS(=O)(=O)c3ccc(Cl)cc3)sc2c1,inactive: -2.54%
3,Cc1ccc(C2c3c(oc4ccccc4c3=O)C(=O)N2c2ccc(C)cn2)cc1 (configuration not stated),inactive: 8.85%
4,CCCCN(C)C(=O)C1CCCN(c2ncnc3onc(-c4ccc(F)cc4)c23)C1 (configuration not stated),inactive: -5.61%
5,Cc1cccc(N2CCN(C(=O)CSCc3ccc(F)cc3)CC2)c1C,inactive: -16.1%
6,CCN(CC)S(=O)(=O)c1ccc2c(c1)c(=O)c(C(=O)NCc1ccccc1)cn2C,inactive: -0.907%
7,Cc1ccc(NC(=O)Nc2nnc(N3CCCC3)s2)c(C)c1,inactive: 1.93%
8,COc1ccc(-c2cn3nc(N4CCC(C(=O)Nc5cccc(Cl)c5)CC4)sc3n2)cc1,inactive: 5.25%
9,Cc1ccc(CNC(=O)Cc2coc3cc(C)cc(C)c23)cc1,inactive: 4.7%
10,CC(=O)N1CCCc2cc(S(=O)(=O)N3CCC(C(=O)NCc4ccc(N(C)C)cc4)CC3)ccc21,inactive: -26.6%
11,COc1cc(CN(CC2CCCO2)C(=O)c2ccc(F)cc2)cc(OC)c1OC (configuration not stated),inactive: 4.79%
12,CCOc1cccc(CC(=O)Nc2ccc3nc(N4CCCCC4)cc(C)c3c2)c1OCC,inactive: 10.5%
13,COc1ccccc1CNC(=O)c1ccc(CS(=O)(=O)c2ccccc2C)o1,inactive: 11.4%
14,COc1ccc(CNC(=O)CCC(=O)N2CC3CCCN3c3ccccc32)cc1 (configuration not stated),inactive: -1.91%
15,CN(C)c1ccc(CNC(=O)c2cc3cc(S(=O)(=O)N4CCCCC4)ccc3n2C)cc1,inactive: -11.1%
16,O=C(CN1C(=O)C2CCCCN2c2ccc(C(=O)N3CCCC3)cc21)NCc1cccc(Cl)c1 (configuration not stated),inactive: 5.21%
17,Cc1ccc(-c2c(C(=O)Nc3ccc(F)c(F)c3)oc(=O)c3ccccc23)cc1,inactive: -0.24%
18,CCn1cc(C(=O)NCc2ccc(C)cc2)c(=O)c2cc(S(=O)(=O)N3CCC(C)CC3)ccc21,inactive: 3.53%
19,CCOc1ccc(CNS(=O)(=O)c2c(C(=O)N3CCCCCC3)c(C)n(C)c2C)cc1OC,inactive: -4.75%
20,Cc1ccc(Cl)c2sc(NC(=O)CS(=O)(=O)c3ccc(Cl)cc3)nc12,inactive: -3.9%
21,Cc1oc(C)c2c(=O)cc(-c3ccc4c(c3)OCO4)cc(OC(=O)c3ccccc3Br)c12,inactive: 0.158%
22,COc1ccc(NC(=O)C2CCN(S(=O)(=O)c3ccc4c(c3)CCCC(=O)N4)CC2)cc1Cl,inactive: 25.8%
23,COc1ccc(NC(=O)c2nnn(Cc3nc(-c4cc(Br)ccc4OC)oc3C)c2C)cc1,inactive: 0.493%
24,CCOc1cccc(C2c3c(oc4ccc(F)cc4c3=O)C(=O)N2CCc2ccc(OC)cc2)c1 (configuration not stated),inactive: 4.42%

row,SMILES,"activity change, negative = cytotoxicity"
1,COc1ccc(Nc2cc(C(=O)NC3CCCC3)c3ccccc3n2)c(OC)c1,inactive: 20%
2,Cc1ccc(CN(C(=O)Nc2cccc(Cl)c2)c2ccccn2)cc1,inactive: -14.4%
3,CCNC(=O)Cn1c(-c2cccs2)cc2ccccc21,inactive: -16.5%
4,CCn1ccc2cc(S(=O)(=O)N3CCC(C(=O)NCc4cccc(C)c4)CC3)ccc21,inactive: 6.83%
5,Cc1ccc(C)c(Cn2c(=O)n(CCCCC(=O)NCc3ccccc3Cl)c(=O)c3ccccc32)c1,inactive: 6.99%
6,COc1ccccc1N1CCN(c2csc3ccc(Cl)cc3c2=O)CC1,inactive: 9.36%
7,CCOc1ccccc1NC(=O)Cn1ccn(-c2ccccc2)c(=O)c1=O,inactive: -1.21%
8,CCCCNC(=O)c1cc(Sc2ccc(OCC)cc2)nc2ccccc12,inactive: 4.14%
9,COc1ccc(S(=O)(=O)N2CCN(c3ccccc3OC)CC2)cc1-c1noc(C)n1,inactive: -2.84%
10,Cc1ccc(Cn2c(-c3ccccc3)nc3ccccc32)cc1,inactive: 1.71%
11,COc1cc(/C=C(\C#N)c2nc3ccccc3c(=O)[nH]2)cc(OC)c1OC,inactive: 8.84%
12,Cc1ccc(-c2nc3ccccc3n3c(-c4ccccc4)c4c(=O)n(C)c(=O)n(C)c4c23)cc1,inactive: -0.928%
13,CCn1ccc2cc(S(=O)(=O)N3CCCN(C(=O)NCC(C)C)CC3)ccc21,inactive: 17.1%
14,COc1cc(OC)c(NC(=O)c2cc(CN3CCOCC3)on2)cc1Cl,inactive: 1.78%
15,COCCNC(=O)CCCn1c(=O)c2cc(OC)c(OC)cc2n(CC(=O)Nc2ccc(F)cc2)c1=O,inactive: -3.5%
16,O=C(COc1ccccc1Cl)Nc1ccc2oc(-c3ccccc3F)nc2c1,inactive: 7.7%
17,O=C(Nc1ccc(F)cc1F)c1cc(-c2ccccc2O)no1,inactive: -0.201%
18,Cc1ccc(NC(=O)Cn2c(=O)n(CCCCC(=O)NCCc3ccccc3)c(=O)c3ccccc32)c(C)c1,inactive: 8.7%
19,Cc1nn2c(=O)cc(COC(=O)c3ccc(NC(=O)C4CCCCC4)cc3)nc2s1,inactive: -20%
20,COc1cc(NC(=O)Cn2nc(C(F)(F)F)c3c2CCCC3)c(OC)cc1Cl,inactive: -0.739%
21,CCCCOC(=O)c1ccc(NC(=O)c2cc3c(=O)n4cccc(C)c4nc3n2C)cc1,inactive: 12.4%
22,CCOc1ccc(CNC(=O)c2ccc(-c3nc(CS(=O)(=O)c4ccccc4)c(C)o3)cc2)cc1,inactive: -18.4%
23,CCOC(=O)C1CCN(CCC(=O)Nc2ccc(Br)c(C)c2)CC1,inactive: 11.6%
